# This is one part of the list. At the low end of the ranking the order means little.
# Target: T1, GST-Rok (full length) (UniProt O34857)
# T1 sequence: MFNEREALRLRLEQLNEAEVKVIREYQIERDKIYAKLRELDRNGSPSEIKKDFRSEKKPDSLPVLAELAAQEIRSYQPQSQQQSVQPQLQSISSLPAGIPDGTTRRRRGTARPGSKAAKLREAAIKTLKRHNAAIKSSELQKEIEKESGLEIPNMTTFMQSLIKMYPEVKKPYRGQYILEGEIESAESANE
# Assay: protein binding microarray;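 note: rank score from −0.5 (least bound) to 0.5 (best bound)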
# Conditions: Rok is a gene silencer of Bacillus subtilis; high values mean tight binding; most listed sequences are background and not binding sites; double strand, one strand shown
row,Sequence,binding signal
1,GACACGAA,-0.244 E-score
2,AGAACTTG,0.123 E-score
3,AGCATGTA,0.327 E-score
4,ATCTGGTG,-0.0303 E-score
5,ACCTATGA,0.118 E-score
6,CACTGGTC,-0.261 E-score
7,ACTAGTGC,0.256 E-score
8,GCATGCTA,0.111 E-score
9,CTGCCCGA,-0.215 E-score
10,CAGGCAAA,-0.105 E-score
11,GTCTATAA,0.179 E-score
12,CAGTTCCG,-0.293 E-score
13,CGTCAGGA,-0.261 E-score
14,TCAACACA,0.0292 E-score
15,CTTCTGAC,0.00129 E-score
16,GACAGGTC,-0.131 E-score
17,AGCCAATA,-0.0468 E-score
18,AATCAATG,0.0424 E-score
19,CGTGTCCC,-0.315 E-score
20,GACAGGGC,-0.199 E-score
21,AAGCCTAG,-0.06 E-score
22,CAATTGTC,-0.0649 E-score
23,CGATCGCC,-0.0734 E-score
24,CCGGTACG,-0.153 E-score
25,AAATAACC,0.146 E-score

row,Sequence,binding signal
1,AACCTTGA,-0.0799 E-score
2,AGAAAAAG,0.0648 E-score
3,CCTCGTCA,-0.22 E-score
4,CTTATAAC,0.115 E-score
5,AACACCGT,0.146 E-score
6,ATCCAATA,0.157 E-score
7,CAATTTAG,0.155 E-score
8,CTGTGCCC,-0.227 E-score
9,CCCTGATC,-0.291 E-score
10,TAAGTGAA,0.201 E-score
11,AAGAATTA,0.203 E-score
12,CGGGGAGA,-0.292 E-score
13,CAGTCCCG,-0.227 E-score
14,TAGTGCGA,0.124 E-score
15,CCGGGGAA,-0.0835 E-score
16,AAAATACT,0.416 E-score
17,CCAATTTC,0.159 E-score
18,ACTCCGGC,-0.11 E-score
19,CCCCAAGG,-0.345 E-score
20,TCCGTCCA,-0.306 E-score
21,ATCAGAGA,0.0162 E-score
22,TAGTGGCA,0.128 E-score
23,CCAGCATC,0.0753 E-score
24,CAGATGAC,-0.166 E-score
25,ATACTCAG,0.116 E-score

row,Sequence,binding signal
1,ACCCTCTA,-0.152 E-score
2,CGACTAAG,-0.135 E-score
3,CCAGCCGA,0.0657 E-score
4,AAATCCAA,0.195 E-score
5,GATTGGTA,0.266 E-score
6,GTGCTAAC,-0.0228 E-score
7,GATTCCGA,0.0264 E-score
8,AGTGTTGG,0.0473 E-score
9,GACTCGGC,-0.229 E-score
10,CGCTATCA,0.0965 E-score
11,ACCTGTGC,-0.235 E-score
12,CCCATATA,0.0887 E-score
13,ATAAGTTC,0.147 E-score
14,CACGGCAC,0.00317 E-score
15,AGTGGCAT,-0.144 E-score
16,ACATTGAC,0.174 E-score
17,AAGTACTG,0.114 E-score
18,CCGGAAGG,-0.277 E-score
19,CGATGAAA,0.0664 E-score
20,CTTTACCC,0.0425 E-score
21,ATTACAAT,0.273 E-score
22,AGAAACCT,0.169 E-score
23,GAGCATCC,-0.345 E-score
24,AATGGGAG,-0.0919 E-score
25,AATATCAC,0.326 E-score

row,Sequence,binding signal
1,CAACGAAA,0.0924 E-score
2,GCCTGAGA,-0.233 E-score
3,AAGCGTGT,0.0855 E-score
4,CTAGCGGA,0.139 E-score
5,ACAGTGAC,0.0465 E-score
6,CGGCTCAC,-0.288 E-score
7,ACGCCGTC,-0.0817 E-score
8,GCGCTAGC,-0.128 E-score
9,ATAATCCC,-0.205 E-score
10,CTCAGCCC,-0.235 E-score
11,GAATAGGC,-0.173 E-score
12,AATCTAAA,0.175 E-score
13,CAGCTAAC,-0.0892 E-score
14,ATAAACTG,0.175 E-score
15,AGCGCTTC,-0.2 E-score
16,AGCGGTCC,-0.135 E-score
17,CCACTGAA,-0.106 E-score
18,CCGGGACG,-0.171 E-score
19,CATTATAA,0.228 E-score
20,ACGCCATA,-0.0445 E-score
21,GCAAGGTA,0.109 E-score
22,CGTTTGAA,-0.00324 E-score
23,TATAGATA,0.384 E-score
24,CCCGGTCG,-0.27 E-score
25,CGAAAGAC,-0.0668 E-score

row,Sequence,binding signal
1,ATGTAAAT,0.376 E-score
2,AACAGGAC,0.00391 E-score
3,CCGTGGAA,-0.0547 E-score
4,AGACCAGA,-0.332 E-score
5,ATGAACTG,0.227 E-score
6,AGAACGAA,0.0711 E-score
7,CCGGTTAA,0.0273 E-score
8,CGTTGTCC,-0.219 E-score
9,ATTTGGTC,0.0568 E-score
10,ATTATGGC,0.185 E-score
11,GATGAAAA,0.0125 E-score
12,AGTCTGAC,-0.198 E-score
13,GCTAATTA,0.325 E-score
14,GATTCACC,-0.0308 E-score
15,GCCGCCAA,-0.274 E-score
16,GCATTCCA,-0.149 E-score
17,CCCGTACG,-0.101 E-score
18,ATCGACAA,0.105 E-score
19,GGCTCGAC,-0.23 E-score
20,CTCCGAAG,-0.0917 E-score
21,CAAACCTC,0.0122 E-score
22,ATTGCATC,0.0126 E-score
23,TCGTCGAA,0.0751 E-score
24,GACATAGA,0.0806 E-score
25,GGCGTGAA,-0.178 E-score

row,Sequence,binding signal
1,ACAGTAGC,0.277 E-score
2,CTTTCCGA,-0.113 E-score
3,TGAGTGAA,-0.101 E-score
4,GCTCAACC,-0.124 E-score
5,ACTCCATG,0.119 E-score
6,GAGGTTTA,-0.0436 E-score
7,ACTTCACT,0.0809 E-score
8,CCGTGACA,-0.0481 E-score
9,ACATCTTA,0.223 E-score
10,ATCCACAA,0.0415 E-score
11,CTAGGATA,0.143 E-score
12,ACGAAAGA,-0.0692 E-score
13,AGAATCTC,0.0678 E-score
14,GATGAATC,-0.0413 E-score
15,CACAACTA,0.252 E-score
16,ATTCGTGG,0.0627 E-score
17,ATGTTTCG,0.0709 E-score
18,AACCAGAT,-0.0279 E-score
19,GATGCGCA,0.037 E-score
20,ATTAATAG,0.324 E-score
21,AATTGTGC,-0.0138 E-score
22,ATGCGACA,-0.185 E-score
23,CCTGACCA,-0.0664 E-score
24,CATGCGGG,-0.226 E-score
25,AAGCCAAG,-0.11 E-score

row,Sequence,binding signal
1,AAGATCCT,-0.0607 E-score
2,AGCCCAAC,-0.175 E-score
3,GAACGCTC,-0.0522 E-score
4,AATACCTA,0.267 E-score
5,AGCTTTCC,-0.0941 E-score
6,GATTCGGA,0.0972 E-score
7,AGAATACC,0.00925 E-score
8,GGGTTACC,-0.227 E-score
9,AGTATCAG,0.0965 E-score
10,CGGTTATC,-0.106 E-score
11,AACTTGGC,-0.0896 E-score
12,CCGACGAC,-0.16 E-score
13,TACCCACA,0.11 E-score
14,CAACTCTA,0.0846 E-score
15,GAGCCAGA,-0.077 E-score
16,TACATCGA,0.197 E-score
17,TCTGCGCA,0.179 E-score
18,AGTGGGGG,-0.223 E-score
19,CGGTGCAA,-0.115 E-score
20,CAGCCCCG,-0.382 E-score
21,ACTTCAGC,0.113 E-score
22,ATTACGTG,0.212 E-score
23,ATACATTA,0.318 E-score
24,AGGTGTAG,0.122 E-score
25,ACTGCGAG,-0.0549 E-score

row,Sequence,binding signal
1,CAATTGGC,-0.00632 E-score
2,TCATTGCA,-0.0188 E-score
3,ACCAACAC,-0.0308 E-score
4,CAGTACGA,-0.048 E-score
5,AGACCGAC,-0.196 E-score
6,TTACCCAA,0.206 E-score
7,GAATGGAC,-0.0766 E-score
8,GAAGATTC,-0.0263 E-score
9,CACCAAGC,-0.0277 E-score
10,GATATAAA,0.33 E-score
11,AACCGATG,-0.325 E-score
12,AGACATCT,0.0606 E-score
13,AGTCGCGC,0.101 E-score
14,CTCCAGAG,-0.223 E-score
15,GCTTGCAA,-0.0949 E-score
16,GAAAAAAA,-0.103 E-score
17,ACCTTTAG,-0.0735 E-score
18,ATGTCAGG,-0.124 E-score
19,AGAGAAAC,0.0652 E-score
20,ATAGCGGA,0.0662 E-score
21,CTCGTGAA,-0.321 E-score
22,ACTCTACT,0.27 E-score
23,CCACATCG,-0.158 E-score
24,ATTGTTCA,0.126 E-score
25,AATGCAAG,-0.0482 E-score

row,Sequence,binding signal
1,GTACCTCA,0.0935 E-score
2,CCCCTACG,-0.444 E-score
3,CCGTTCGC,-0.25 E-score
4,TATCCCAA,0.0744 E-score
5,AGTAGCGC,0.14 E-score
6,ACATCGAC,0.09 E-score
7,ACCAGCGA,0.152 E-score
8,CGCGACCG,-0.319 E-score
9,TCTGCAAA,-0.0491 E-score
10,ACGGTGTA,0.0142 E-score
11,CATAAAGG,-0.148 E-score
12,CAACTCCG,-0.12 E-score
13,GTAGTCGA,0.0617 E-score
14,CTAGATAA,0.302 E-score
15,AGTCGTTA,-0.0861 E-score
16,CGCTCCTC,-0.314 E-score
17,ACGACCAT,-0.0466 E-score
18,GATAGTGC,0.0754 E-score
19,AGGCGCCG,-0.361 E-score

# — article PMC6212790
